Results taken from patent US20240016892A1 (SHATTUCK LABS, published 2024).

Columns and labels:
human CD47-His = biological target: T1, human CD47-His (human, UniProt Q08722 partial chain); test: MSD sandwich 'Human CD47/41BB Dual-Binding Assay': coat h41BB-His (R&D), hSIRPa-Fc-41BBL titrated, detection printed as 'anti-CD47-His, Biotin (Acro)' (human CD47-His-Biotin by paragraph 626), Streptavidin Sulfo (same curve as the coat row)
T1 construct: CD47-His and CD47-His-Biotin are treated as one molecule; also called human CD47-His-Biotin; not shown: His tag
Method: (§1) To understand whether the human SIRPα-Fc-4-1BBL chimeric protein can contemporaneously bind to human 4-1BB and CD47, human 4-1BB-His was coated on plates and increasing amounts of the hSIRPα-Fc-4-1BBL, or PD-1-Fc-4-1BBL chimeric proteins were added to the plates for capture by the plate-bound human 4-1BB-His. The PD-1-Fc-4-1BBL chimeric protein was used as a negative control. Then, human CD47-His-Biotin was added to the plate for capture by any chimeric protein, which was in turn captured by the human 4-1BB. Streptavidin SULFO-TAG secondary was used for detection. Binding was assayed using an electrochemiluminescence (ECL) readout.

human 4-1BB-His [1] = biological target: T2, human 4-1BB-His (human, UniProt Q07011 24-186); test: MSD 'Human 41BB-Binding Assay': coat h41BB-His (R&D), detect anti-41BBL (R&D), anti-Goat Sulfo
T2 construct: not shown: His tag
Method: In a similar experiment, human 4-1BB-His was coated on plates and increasing amounts of the hSIRPα-Fc-4-1BBL, PD-1-Fc-4-1BBL or hSIRPα-Fc-CD40L chimeric proteins were added to the plates for capture by the plate-bound human 4-1BB-His. The hSIRPα-Fc-CD40L chimeric protein was used as a negative control for binding to human 4-1BB. Binding of the chimeric proteins to 4-1BB-His was detected using an anti-4-1BBL antibody and an anti-sheep SULFO-TAG secondary antibody. Binding was assayed using an electrochemiluminescence (ECL) readout.

human 4-1BB-His [2] = biological target: T2, human 4-1BB-His; test: MSD sandwich 'Human CD47/41BB Dual-Binding Assay': coat h41BB-His (R&D), hSIRPa-Fc-41BBL titrated, detection printed as 'anti-CD47-His, Biotin (Acro)' (human CD47-His-Biotin by paragraph 626), Streptavidin Sulfo
Method: as §1

human CD47-His, sequence (Q08722 19-139 limits assumed): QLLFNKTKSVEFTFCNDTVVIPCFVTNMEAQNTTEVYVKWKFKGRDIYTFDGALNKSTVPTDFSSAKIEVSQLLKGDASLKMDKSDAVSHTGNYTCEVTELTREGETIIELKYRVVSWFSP

B1: human SIRPα-Fc-4-1BBL chimeric protein (Fc fusion)
chain: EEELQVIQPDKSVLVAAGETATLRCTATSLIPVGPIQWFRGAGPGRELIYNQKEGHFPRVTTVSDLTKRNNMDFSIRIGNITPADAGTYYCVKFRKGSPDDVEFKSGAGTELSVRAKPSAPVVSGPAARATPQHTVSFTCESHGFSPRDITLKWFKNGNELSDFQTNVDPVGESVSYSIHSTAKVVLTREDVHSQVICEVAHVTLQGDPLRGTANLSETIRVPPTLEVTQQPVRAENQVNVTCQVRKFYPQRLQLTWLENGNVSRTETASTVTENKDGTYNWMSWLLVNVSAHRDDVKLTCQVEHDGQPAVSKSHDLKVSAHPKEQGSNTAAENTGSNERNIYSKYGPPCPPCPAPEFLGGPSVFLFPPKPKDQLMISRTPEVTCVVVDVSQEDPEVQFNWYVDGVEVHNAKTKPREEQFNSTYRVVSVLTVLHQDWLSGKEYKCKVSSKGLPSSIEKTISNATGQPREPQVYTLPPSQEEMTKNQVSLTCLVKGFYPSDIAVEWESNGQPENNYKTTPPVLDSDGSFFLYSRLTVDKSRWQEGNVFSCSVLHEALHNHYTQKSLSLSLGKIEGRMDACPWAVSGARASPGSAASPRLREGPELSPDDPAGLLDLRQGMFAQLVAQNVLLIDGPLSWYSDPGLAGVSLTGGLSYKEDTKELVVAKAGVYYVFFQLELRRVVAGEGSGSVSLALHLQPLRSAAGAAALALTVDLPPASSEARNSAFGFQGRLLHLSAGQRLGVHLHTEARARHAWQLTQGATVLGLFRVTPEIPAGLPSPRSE
notes: Glycosylated; forms multimers; also called hSIRPα-Fc-4-1BBL; CD172a(SIRPα)-Fc-4-1BBL
B1 was tested, and the EC50 (human CD47-His) was 6.04 nM, the EC50 (human 4-1BB-His [1]) was 0.64 nM and the EC50 (human 4-1BB-His [2]) was 6.04 nM.
